The target in the experiment is recombinant human PD-L1 (human).

B1: Janus #3 (other)
light: QSALTQPASVSGSPGQSITISCTGTSSDVGGYNYVSWYQQHPGKAPKLMIYDVSNRPSGVSNRFSGSKSGNTASLTISGLQAEDEADYYCSSYTSSSTRVFGTGTKVTVLGQPKANPTVTLFPPSSEELQANKATLVCLISDFYPGAVTVAWKADGSPVKAGVETTKPSKQSNNKYAASSYLSLTPEQWKSHRSYSCQVTHEGSTVEKTVAPTECS
heavy: EVQLLESGGGLVQPGGSLRLSCAASGFTFSSYIMMWVRQAPGKGLEWVSSIYPSGGITFYADTVKGRFTISRDNSKNTLYLQMNSLRAEDTAVYYCARIKLGTVTTVDYWGQGTLVTVSSASTKGPSVFPLAPSSKSTSGGTAALGCLVKDYFPEPVTVSWNSGALTSGVHTFPAVLQSSGLYSLSSVVTVPSSSLGTQTYICNVNHKPSNTKVDKKV[human IgG1 Fc with T366Y (EU numbers) not given here]
chain: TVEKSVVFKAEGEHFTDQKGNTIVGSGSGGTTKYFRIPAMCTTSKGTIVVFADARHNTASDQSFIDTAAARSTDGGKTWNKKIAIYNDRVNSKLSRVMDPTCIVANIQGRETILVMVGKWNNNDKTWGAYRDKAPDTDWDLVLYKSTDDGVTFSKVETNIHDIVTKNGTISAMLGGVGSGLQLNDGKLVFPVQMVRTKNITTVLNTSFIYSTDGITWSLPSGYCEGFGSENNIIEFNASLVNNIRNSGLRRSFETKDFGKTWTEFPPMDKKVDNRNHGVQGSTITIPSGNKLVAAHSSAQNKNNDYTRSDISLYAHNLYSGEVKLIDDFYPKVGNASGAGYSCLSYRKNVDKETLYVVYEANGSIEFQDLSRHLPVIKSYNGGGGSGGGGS[human IgG1 Fc with Y407T (EU numbers) not given here]SGGGGSHHHHHHHH
Usually Kd stands for a measure of binding affinity in units of concentration. Broadly, the koff is the first-order rate constant of dissociation. A word on the kon: it is a measure of how fast the partners come together. With B1, the dissociation constant Kd turned out to be 0.556 nM, the koff was determined as 0.000188 s⁻¹ and the kon was found to be 358000 M⁻¹ s⁻¹.

B2: Bunk #2 (other)
light: QSALTQPASVSGSPGQSITISCTGTSSDVGGYNYVSWYQQHPGKAPKLMIYDVSNRPSGVSNRFSGSKSGNTASLTISGLQAEDEADYYCSSYTSSSTRVFGTGTKVTVLGQPKANPTVTLFPPSSEELQANKATLVCLISDFYPGAVTVAWKADGSPVKAGVETTKPSKQSNNKYAASSYLSLTPEQWKSHRSYSCQVTHEGSTVEKTVAPTECS
heavy: EVQLLESGGGLVQPGGSLRLSCAASGFTFSSYIMMWVRQAPGKGLEWVSSIYPSGGITFYADTVKGRFTISRDNSKNTLYLQMNSLRAEDTAVYYCARIKLGTVTTVDYWGQGTLVTVSSASTKGPSVFPLAPSSKSTSGGTAALGCLVKDYFPEPVTVSWNSGALTSGVHTFPAVLQSSGLYSLSSVVTVPSSSLGTQTYICNVNHKPSNTKVDKKV[human IgG1 Fc with T366Y (EU numbers) not given here]GGGGSGGGGSGGGGSQSALTQPASVSGSPGQSITISCTGTSSDVGGYNYVSWYQQHPGKAPKLMIYDVSNRPSGVSNRFSGSKSGNTASLTISGLQAEDEADYYCSSYTSSSTRVFGTGTKVTVLGQPKAGGGGSGGGGSGGGGSEVQLLESGGGLVQPGGSLRLSCAASGFTFSSYIMMWVRQAPGKGLEWVSSIYPSGGITFYADTVKGRFTISRDNSKNTLYLQMNSLRAEDTAVYYCARIKLGTVTTVDYWGQGTLVTVSS
chain: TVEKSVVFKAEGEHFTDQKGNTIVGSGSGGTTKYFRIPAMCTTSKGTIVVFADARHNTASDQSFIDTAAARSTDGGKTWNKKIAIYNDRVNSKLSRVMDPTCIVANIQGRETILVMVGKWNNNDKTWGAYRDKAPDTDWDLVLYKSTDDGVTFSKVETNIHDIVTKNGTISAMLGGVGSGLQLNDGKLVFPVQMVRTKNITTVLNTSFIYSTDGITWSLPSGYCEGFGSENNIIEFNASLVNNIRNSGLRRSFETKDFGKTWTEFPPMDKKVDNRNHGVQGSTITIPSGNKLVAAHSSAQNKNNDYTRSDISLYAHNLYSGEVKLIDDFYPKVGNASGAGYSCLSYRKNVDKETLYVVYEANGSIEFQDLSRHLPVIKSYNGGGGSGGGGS[human IgG1 Fc with Y407T (EU numbers) not given here]SGGGGSHHHHHHHH
Consider B2, for which the Kd was found to be 0.944 nM, the koff worked out at 0.000273 s⁻¹ and the kon was 324000 M⁻¹ s⁻¹.

Source of the values: patent publication US20220372458A1 (PALLEON PHARMACEUTICALS, published 2022).
